Results on 82 compounds are retold here after ChEMBL document CHEMBL1201862, “PubChem BioAssay data set” (2004).

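A five-concentration, 48-hour dose response in 96-well plates underlies each endpoint, interpolated linearly between surrounding concentrations. The concentration for 50% growth inhibition is given as GI50.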 The source made the active and inactive calls. Rule as the data show it: active = GI50 up to about 1.1 µM and inactive = higher.

The assay relates to NCI-H322M. The assay is described as follows: growth of human tumour cells (NCI), 48 h.
For `CN1CCN(CCCCNc2cc3c4ccccc4c(NCCCCN4CCN(C)CC4)cc3c3ccccc23)CC1`, the GI50 was inactive: 4.75 µM.

For `COc1ccc2nc3c4c(nccc4c2c1)-c1ncccc1C3=O`, the GI50 was active: 0.0424 µM.

As to `O=C(O)c1nn(-c2ccccc2)nc1-c1nn(-c2ccccc2)nc1C(=O)O`, the GI50 is inactive: > 100 µM.

With `CC(CCC(=O)O)(c1ccc(O)cc1)c1ccc(O)cc1`, the GI50 was inactive: > 100 µM.

For `COc1ccc(OC)c(-c2cc(O)c3cc4c(cc3n2)OCO4)c1`, the GI50 is inactive: 4.8 µM.

On to `CC(=O)NC1=C(OS(=O)(=O)c2ccc(C)cc2)CN(C)C1=O`, for which the GI50 was inactive: 15.6 µM.

For `O=C1/C(=C/c2ccccc2)CCCC/C1=C\c1ccccc1`, the GI50 was inactive: > 100 µM.

As for `Cc1ccc(-c2nc(-c3nccc4ccccc34)oc2-c2ccccc2)cc1`, the GI50 was inactive: 21.3 µM.

For the compound `CC1(C)CC(=O)C(C(c2cccc(O)c2O)C2C(=O)CC(C)(C)CC2=O)C(=O)C1`, the GI50 was inactive: > 100 µM.

`Cc1cc(O)c2cc3c(O)c(O)ccc3cc2c1`: the GI50 is inactive: 3.84 µM.

As for `O=C(Nc1ccc2ccccc2c1)Nn1cnnc1`, the GI50 is inactive: > 100 µM.

As to `Nc1nc(S)nc(C(=O)Nc2nccs2)c1-c1ccccc1`, the GI50 is inactive: > 100 µM.

As to `CC1(C)CC(=O)C(CCC(=O)/C=C/c2ccccc2)C(=O)C1`, the GI50 was inactive: > 100 µM.

As to `CC(C)(C)OC(=O)N/C=C1\C(=O)Oc2ccccc2C1=O`, the GI50 was inactive: 35.1 µM.

On to `O=c1[nH]c2cc(C(F)(F)F)ccc2nc1CBr`, for which the GI50 was inactive: 16.3 µM.

In the case of `CN(CCO)c1nc(=O)c2c([nH]1)CCC2`, the GI50 is inactive: > 100 µM.

As to `COC(=O)C1CC/C(=N/c2ccc(C)cc2C)N1` (configuration not stated), the GI50 is inactive: > 100 µM.

Take `COc1cc2c(cc1OC)C(=O)/C(=C/c1cc(OC)c(OC)c(OC)c1)C2`: the GI50 was inactive: > 100 µM.

Regarding `COc1ccc([C@@]23OC[C@@H]4[C@@H](OC[C@@H]42)c2cc(OC)c(OC)cc23)cc1OC`, the GI50 was inactive: > 100 µM.

For `N=C(N)NS(=O)(=O)c1ccc(NNC(=O)c2cccc3c(O)c4ccccc4nc23)cc1`, the GI50 was inactive: 22.2 µM.

On to `CN(C(=O)c1ccc(Cl)cc1)C(=S)N1CCN(c2ccccn2)CC1`, for which the GI50 is inactive: > 100 µM.

For `CCCCCCCCCCCCCCCC(=O)OCCOCCOCCOCCOCCOC(=O)CCCCCCCCCCCCCCC`, the GI50 was inactive: > 100 µM.

Regarding `Cc1c(Cl)ccc2c1NC(=O)C2(O)CC(=O)c1ccc2ccccc2c1` (configuration not stated), the GI50 is inactive: 79.1 µM.

In the case of `O=C(/C=C/CC(O)(c1ccccc1)c1ccccc1)Nc1ccccc1Cl`, the GI50 was inactive: > 100 µM.

Regarding `CC1=CC[C@@]2(CO)[C@@H]([C@@H]1C)[C@H]1CC[C@@H]3[C@@]4(C)CC[C@H](O)C(C)(C)[C@@H]4CC[C@@]3(C)[C@]1(C)C[C@@H]2O`, the GI50 was inactive: 38.4 µM.

As to `OCCCNCC(O)c1ccc(OCc2ccccc2)c(OCc2ccccc2)c1` (configuration not stated), the GI50 was inactive: 13.4 µM.

Regarding `COc1ccc(NC(=S)N/N=C\c2ccc(NC(C)=O)cc2)cc1`, the GI50 is inactive: > 100 µM.

`C=C(C)OCOCCOC`: the GI50 was inactive: > 100 µM.

With `Cn1ccnc1CCc1ccc(Cl)c(Cl)c1`, the GI50 is inactive: > 100 µM.

Take `COC1=C(C)C(=O)c2c(c(COC(N)=O)c3n2CC(OC(C)=O)C3OC(C)=O)C1=O` (configuration not stated): the GI50 was inactive: 1.19 µM.

In the case of `Clc1ccc(/C=C/c2nc(-c3ccccc3)cn3c2nc2ccccc23)cc1Cl`, the GI50 was inactive: > 100 µM.

As for `C/C(=C1/N=C(c2ccccc2)OC1=O)c1ccc(C)cc1`, the GI50 is inactive: 46.7 µM.

With `CC1=NN(C(=O)c2ccccc2O)C(c2ccccc2Cl)C1C(=O)Nc1ccccc1` (configuration not stated), the GI50 was active: 0.542 µM.

Regarding `COc1nc(C)nc2c1ncn2Cc1ccccc1`, the GI50 was inactive: > 100 µM.

For the compound `COc1cc(C2C(Cl)C(=O)N2NC(=O)c2ccc(N)cc2)cc(Br)c1O` (configuration not stated), the GI50 was inactive: 15.4 µM.

Take `CC1=CCCC2C1(C)CCC(C)C2(C)Cc1cc(O)ccc1O` (configuration not stated): the GI50 is inactive: 7.55 µM.

For `CCN1c2cc(Br)cc3[nH]c(=O)n(c23)CCC1C` (configuration not stated), the GI50 was inactive: 18.5 µM.

For `C/C(CC(O)(C(F)(F)F)C(F)(F)F)=N\N`, the GI50 is inactive: > 10 µM.

As for `CSc1ccc(C=C2N=C(c3ccccc3)N(c3cc(C(=O)c4ccccc4)ccc3N3C(=O)/C(=C/c4ccc(SC)cc4)N=C3c3ccccc3)C2=O)cc1`, the GI50 is inactive: > 100 µM.

Regarding `CC12CC3CC/C(=N\O)C(C1)C3(N1CCOCC1)C/C2=N/O` (configuration not stated), the GI50 is inactive: > 100 µM.

As for `Cn1c2ccccc2n2c(=O)c3cccnc3c(C#N)c12`, the GI50 is inactive: > 100 µM.

With `CCCCS(=O)(=O)Nc1ccc(Nc2c3ccccc3nc3ccccc23)c(OC)c1`, the GI50 is inactive: 10.8 µM.

As to `C=C(Br)CN(CC(=C)Br)C(C)=O`, the GI50 was inactive: > 100 µM.

Take `COc1cc(OC)c(Oc2cccc(OC)c2OC)c(OC)c1`: the GI50 is inactive: > 100 µM.

Take `COc1ccc2c(c1)-c1[nH]c3ccc(OC)cc3c1CC2`: the GI50 was inactive: 15.9 µM.

For `CC(=O)Oc1cc(C(F)(F)F)ccc1C(=O)OC1(C)OC(=O)c2ccc(C(F)(F)F)cc2O1` (configuration not stated), the GI50 was inactive: > 100 µM.

On to `CC(NC(=O)C1(N)CCCC1)C(=O)O` (configuration not stated), for which the GI50 is inactive: > 100 µM.

Regarding `O=[N+]([O-])c1cc2ccc1OCc1cccc(n1)COc1ccc(cc1[N+](=O)[O-])/C=N\CCCCCCCC/N=C\2`, the GI50 was inactive: > 100 µM.

On to `Cc1ccc2c(ccc3c[n+]4ccccc4c(C)c32)c1.[O-][Cl+3]([O-])([O-])[O-]`, for which the GI50 was inactive: 5.19 µM.

As to `Cc1cc(N(CCC#N)CCC#N)ccc1/C=C(\NC(=O)/C=C/c1ccccc1)C(=O)NN`, the GI50 is inactive: > 93.3 µM.

As for `O=C1C2=C(SCCS2)C(=O)c2c(Sc3ccc(Cl)cc3)c(Sc3ccc(Cl)cc3)c(Sc3ccc(Cl)cc3)c(Sc3ccc(Cl)cc3)c21`, the GI50 is inactive: > 100 µM.

In the case of `COc1ccc2ccccc2c1C1=NC(C)(C)CO1`, the GI50 is inactive: > 100 µM.

With `NNC(=O)CCCCCCCC(=O)O`, the GI50 was inactive: > 100 µM.

With `CCCCCCCCCCc1c2nc(c(CCCCCCCCCC)c3ccc([nH]3)c(CCCCCCCCCC)c3nc(c(CCCCCCCCCC)c4ccc1[nH]4)C=C3)C=C2`, the GI50 is inactive: > 100 µM.

As for `CC(=O)/N=C1\NC(=O)/C(=C/c2ccc(/C=C3/C(=O)N/C(=N\C(C)=O)N3C)cc2)N1C`, the GI50 was inactive: > 100 µM.

Take `C/C(=N\NC(=O)CC#N)C(CN1CCCCC1)C(c1ccccc1)c1c(O)c2ccccc2oc1=O` (configuration not stated): the GI50 was inactive: 65 µM.

In the case of `COc1ccc(-c2oc(/C=N/c3ccccc3)c([N+](=O)[O-])c2-c2ccc(OC)c(OC)c2)cc1OC`, the GI50 was inactive: > 100 µM.

`O=C(Nc1nnc(S)[nH]1)C(=O)C(C(=O)c1ccc2ccccc2c1)C1OC(=O)c2ccccc21` (configuration not stated): the GI50 is inactive: 17.7 µM.

For the compound `CCCCN(CCCC)CC(C(=O)Nc1ccc([N+](=O)[O-])cc1[N+](=O)[O-])/C(C)=N\NC(=S)NN` (configuration not stated), the GI50 was inactive: > 100 µM.

As to `CCOC(=O)C(Cc1ccc(N(CCCl)CCCl)cc1)NC(=O)C(Cc1ccccc1)NC(C)=O` (configuration not stated), the GI50 is active: > 0.351 µM.

On to `Nc1nc(Cl)cc(NCC2(CO)CC(=O)C2)n1`, for which the GI50 was inactive: > 100 µM.

For `Cc1cccc(CC(Cc2c(C)cccc2C(=O)O)C(=O)O)c1` (configuration not stated), the GI50 is inactive: > 100 µM.

Regarding `CC[C@@]1(O)C(=O)OCc2c1cc1n(c2=O)Cc2c-1nc1ccccc1c2/C=N\NC(=O)C(N)Cc1c[nH]c2ccccc12` (some centres not stated), the GI50 was inactive: 2 µM.

Regarding `CC(C)/C(=N\[N+](C)(C)C)c1ccccc1`, the GI50 was inactive: > 100 µM.

As for `CC1=C(C(=O)N[C@@H](CC(C)C)C(=O)O)N2C(=O)[C@@H](NC(=O)[C@@H](N)Cc3ccccc3)[C@H]2SC1`, the GI50 is inactive: > 100 µM.

Turning to `CC(C)N1[C@@H]2CCCC[C@H]2N(C(C)C)[PH]1=O`, the GI50 was inactive: > 100 µM.

In the case of `CCOC(=O)c1cn(Cc2ccccc2)c(=O)n1Cc1ccccc1`, the GI50 is inactive: > 100 µM.

Regarding `CC(=O)NC1C(OCc2ccccc2)OC(CO)C(O)C1OC(C)C(=O)NC(C(=O)NC(CCC(=O)Nc1ccc2c(c1)CN1C(=O)c3ccccc3C1=N2)C(N)=O)C(C)C` (configuration not stated), the GI50 was inactive: > 100 µM.

For `Cc1cc(C)c2c(n1)S(=O)(=O)N(CCCN1CCN(c3cccc(C(F)(F)F)c3)CC1)C(C(=O)c1ccc(Cl)cc1)=C2O`, the GI50 was inactive: 4.47 µM.

Turning to `CS(=O)(=O)OCCCOS(C)(=O)=O`, the GI50 is inactive: > 100 µM.

In the case of `Cc1nc2ccc(NC(=S)Nc3ccccc3)cc2c(=O)n1-c1ccccc1`, the GI50 is inactive: > 100 µM.

Take `CCOC(=O)[C@H](Cc1ccccc1)NC(=O)c1nc[nH]c1[N+](=O)[O-]`: the GI50 is inactive: > 100 µM.

On to `CC(C(=O)c1ccc(Cl)cc1)C1OC(=O)C(Cl)=C1Cl` (configuration not stated), for which the GI50 was inactive: > 100 µM.

In the case of `O=C(O)[C@H]1NC[C@@H]2ON=C(Br)[C@@H]21`, the GI50 is inactive: > 100 µM.

For `CC(OC(=O)NCn1cc(-c2ccccc2)nn1)c1ccccc1` (configuration not stated), the GI50 was inactive: > 100 µM.

`O=c1ssc(Cl)c1Nc1c(Cl)ssc1=O`: the GI50 is inactive: 19.2 µM.

Regarding `COC(=O)CC(=O)OC1C[C@@H]2CCC3C(C)(C)CCC[C@]3(C)C23CC[C@@]1(C)C3` (some centres not stated), the GI50 is inactive: 19 µM.

Regarding `C[C@]12CC[C@@H]3c4cc(C=O)c(OCc5ccccc5)cc4CC[C@H]3[C@@H]1CCC2OCc1ccccc1` (some centres not stated), the GI50 is inactive: > 100 µM.

As to `CC1CCCCc2nc3c(c(=O)n21)CCCC3` (configuration not stated), the GI50 was inactive: > 100 µM.

For the compound `CSc1c([S+](C)[O-])[nH]c2cc(Br)cc(Br)c12` (configuration not stated), the GI50 is inactive: 27.2 µM.

On to `CC(=O)OC1(C)CC(C)C(=O)C(C(O)CC2CC(=O)NC(=O)C2)C1` (configuration not stated), for which the GI50 was active: 0.0128 µM.

As for `CC[C@@]1(O)C(=O)OCc2c1cc1n(c2=O)Cc2cc3cc(OC)ccc3nc2-1`, the GI50 is active: 0.129 µM.
